Results taken from paper PMC4336329 (PLoS ONE, 2015).
Out of some 310,000 compounds screened, about 2,200 (0.71%) showed an effect of 50% or more. Effects have a minus sign here. The list shows a part of the results.

target: human ether-à-go-go-related gene (hERG) potassium channel (human, UniProt Q12809); experiment: primary screen, population patch clamp on CHO cells stably expressing hERG
Sequence (Q12809 whole entry, looked up): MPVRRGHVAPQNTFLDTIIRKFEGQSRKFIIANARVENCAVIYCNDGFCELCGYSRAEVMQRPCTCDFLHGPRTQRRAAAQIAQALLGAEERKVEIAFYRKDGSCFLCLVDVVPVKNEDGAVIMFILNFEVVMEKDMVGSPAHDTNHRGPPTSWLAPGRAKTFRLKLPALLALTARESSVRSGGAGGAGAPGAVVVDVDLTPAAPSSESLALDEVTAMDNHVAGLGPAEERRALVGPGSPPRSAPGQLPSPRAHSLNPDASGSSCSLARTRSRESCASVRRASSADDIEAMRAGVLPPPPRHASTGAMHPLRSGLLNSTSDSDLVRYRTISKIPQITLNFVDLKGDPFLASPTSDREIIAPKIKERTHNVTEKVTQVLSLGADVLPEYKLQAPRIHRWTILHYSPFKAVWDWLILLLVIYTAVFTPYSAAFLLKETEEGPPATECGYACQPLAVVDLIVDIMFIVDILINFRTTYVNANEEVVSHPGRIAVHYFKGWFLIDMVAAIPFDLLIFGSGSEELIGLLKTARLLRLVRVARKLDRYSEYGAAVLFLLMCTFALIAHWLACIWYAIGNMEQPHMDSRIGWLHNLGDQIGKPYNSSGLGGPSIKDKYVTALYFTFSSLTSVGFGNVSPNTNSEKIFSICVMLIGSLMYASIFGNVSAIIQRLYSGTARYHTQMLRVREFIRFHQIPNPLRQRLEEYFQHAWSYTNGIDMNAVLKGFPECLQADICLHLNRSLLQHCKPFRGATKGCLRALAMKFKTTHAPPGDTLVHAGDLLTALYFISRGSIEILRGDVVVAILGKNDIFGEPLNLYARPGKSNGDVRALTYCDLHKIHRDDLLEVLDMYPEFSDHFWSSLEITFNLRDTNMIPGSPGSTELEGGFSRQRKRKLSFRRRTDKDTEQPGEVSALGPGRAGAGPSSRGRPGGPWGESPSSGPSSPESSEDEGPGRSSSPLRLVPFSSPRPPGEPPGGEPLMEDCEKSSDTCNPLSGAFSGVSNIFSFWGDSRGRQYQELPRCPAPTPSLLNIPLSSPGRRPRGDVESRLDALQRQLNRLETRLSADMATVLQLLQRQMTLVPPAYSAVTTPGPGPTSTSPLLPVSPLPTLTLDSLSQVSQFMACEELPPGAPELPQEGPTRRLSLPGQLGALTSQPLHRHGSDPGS

Row | Structure (SMILES) | hERG current change (%, negative = inhibition) at 1uM
1 | Cc1nc(NCCN2CCOCC2)c2nnn(Cc3c(F)cccc3Cl)c2n1 | 7.62%
2 | CN(C)CC(C)(C)CNS(=O)(=O)c1ccc(Cl)cc1.Cl | 6.5%
3 | COc1ccc(NC(=O)CSc2ccc3c4c(cccc24)C(=O)c2ccccc2-3)cc1 | 3.99%
4 | Cc1cccc(NC(=O)c2nc[nH]c2C(=O)NC2CCN(C(=O)OC(C)(C)C)CC2)c1 | 17.7%
5 | CC(C)CC(=O)Nc1nnc(SCC(=O)Nc2ccc(F)cc2)s1 | -14.3%
6 | O=C(CNC(=O)c1ccccc1)N=Nc1c(O)[nH]c2ccc(Br)cc12 | 13.7%
7 | S=c1nc(C2CC2)n(-c2ccccc2)[nH]1 | 10.1%
8 | Cl.c1ccc2c(c1)CCCC2C1=NCCN1 (centres unmarked) | -7.58%
9 | CCCCn1c(CNC(C)=O)nc2ccccc21 | 10.8%
10 | COc1ccc(/C(C)=N/N=C(N)N)c(O)c1 | 12.9%
11 | O=C(/C=C/c1ccco1)Nc1ccccc1N1CCCCC1 | 16.2%
12 | CCc1noc(C)c1C(=O)Nc1nc(-c2ccc(Cl)cc2Cl)c(C)s1 | 9.04%
13 | CCOP(=O)(OCC)C(Nc1ccc(C)cc1)c1ccco1 (centres unmarked) | 6.53%
14 | Cc1ccc(CN(C)S(=O)(=O)c2c(C)noc2/C=C/N(C)C)cc1 | 11.9%
15 | Cc1ccccc1OCC(=O)Nc1ccc(C(N)=O)cc1 | 0.85%
16 | CCn1c(SCC(=O)Nc2ccccc2C)nnc1-c1ccccc1O | 0.947%
17 | COc1ccc(OC)c(-c2csc(NC(=O)C3=NNC(=O)CC3)n2)c1 | 20.6%
18 | O=C1CCCC(=O)C1CS(=O)(=O)c1ccccc1 | 14.3%
19 | O=C(CN1C(=O)/C(=C\c2ccccc2Cl)Oc2ccccc21)NCc1cccnc1 | 5.85%
20 | O=c1cc(CSc2ccccc2)[nH]c(=S)[nH]1 | 11.4%
21 | COc1ccc(S(=O)(=O)NC(C)C(=O)NC2CC2)cc1C (centres unmarked) | 4.22%
22 | COc1ccc(NC(=O)c2cc(S(=O)(=O)N3CCCC3)oc2C)cc1 | 10.6%
23 | CCOC(=O)N1CCC(Nc2c([N+](=O)[O-])cc(C(=O)O)cc2[N+](=O)[O-])CC1 | 17%

Row | Structure (SMILES) | hERG current change (%, negative = inhibition) at 1uM
24 | CCC(=O)Nc1ccc(C(=O)Nc2cccc(C)n2)cc1 | 14.4%
25 | COc1ccc(N2C(=O)CC(N3CCOCC3)C2=O)cc1 (centres unmarked) | 16.3%
26 | CCC1(CC)NC(=O)N(CC(=O)OCC(=O)Nc2ccccc2OC(F)F)C1=O | 17.8%
27 | O=c1c2ccccc2nc(-c2ccccc2)n1O | 5.43%
28 | O=C(O)C1C2CCC(C2)C1C(=O)NCCc1cccc(Cl)c1 (centres unmarked) | 14%
29 | COCCN1Cc2cccc(C(=O)NCc3ccccn3)c2C1=O | 10.6%
30 | COC(OC)c1ccc(C#N)c(SCc2ccccc2)n1 | 12.4%
31 | N#C/C(=C\c1ccc(O)c([N+](=O)[O-])c1)C(=O)NCc1ccccc1 | 15.6%
32 | COc1ccccc1N1CCN(C(=O)c2cc(-c3cccs3)on2)CC1 | -2.46%
33 | COc1cc(C2C(C#N)=C(N)N(N(C)C)C3=C2C(=O)CCC3)cc(OC)c1OC (centres unmarked) | 16%
34 | CCOC(=O)N1CCC(N2C(=O)c3ccccc3C2Nc2ccc(C)cc2)CC1 (centres unmarked) | 2.36%
35 | CC(=O)c1cccc(NC(=O)C2CCN(S(=O)(=O)c3c(C)n[nH]c3C)CC2)c1.Cl | 1.55%
36 | COc1ccccc1CNC(=O)COC(=O)c1ccccn1 | 12.6%
37 | COC(=O)c1cc(Nc2cc(C)nc3ncnn23)cc(C(=O)OC)c1 | 5.12%
38 | CCC(=O)c1ccc(OCC(=O)OC(C)C(=O)NCc2ccc3c(c2)OCO3)cc1 (centres unmarked) | 18.3%
39 | O=C(Nc1cccc(F)c1)C1CCCN(c2cnccn2)C1 (centres unmarked) | 16.7%
40 | COc1ccc(NC(=O)c2cccc(N3C(=O)NC4CC3(C)Oc3ccccc34)c2)cc1 (centres unmarked) | 3.52%
41 | CC(C)CCSc1nc2c(c(=O)[nH]c(=O)n2C)n1CCCc1ccccc1 | 12.4%
42 | Cc1ccc(OCCC(=O)NNC(=O)c2ccccc2F)cc1 | 4.4%
43 | COc1cccc(/C=C2\SC(=O)N(CC(=O)NC3C=CS(=O)(=O)C3)C2=O)c1 (centres unmarked) | 2.5%
44 | COc1ccc(C(=O)NCCSCc2ccccc2)cc1OC | 12.1%
45 | O=C(NCCc1ccc(F)cc1)c1ccc(S(=O)(=O)N2CCCC2)cc1 | 6.34%
46 | Cc1c(F)cccc1NS(=O)(=O)c1ccc(OCCNS(C)(=O)=O)cc1 | 13.8%

Row | Structure (SMILES) | hERG current change (%, negative = inhibition) at 1uM
47 | COc1ccc(C(=O)Nc2ccnn2C2CCN(CCC(C)c3ccc(C)o3)CC2)cc1 (centres unmarked) | -18%
48 | COc1ccccc1NC(=O)C(=O)NNS(=O)(=O)c1ccc2ccccc2c1 | 9.63%
49 | COc1ccc(NC(=O)N2CCCCC2c2cccnc2)cc1 (centres unmarked) | 6.63%
50 | COc1ccc(OC)c(C2/C(=C(/O)c3ccc(C)cc3)C(=O)C(=O)N2Cc2ccco2)c1 (centres unmarked) | 13.1%
51 | CC1=NN(C(=O)c2ccc(Cn3ccc([N+](=O)[O-])n3)cc2)C(O)(C(F)(F)F)C1 (centres unmarked) | 8.05%
52 | N#Cc1c(-c2ccc(Cl)cc2)c2c([nH]c1=O)-c1ccccc1OC2 | 9.71%
53 | CN(NC(=O)c1ccccc1F)c1ccc([N+](=O)[O-])cn1 | 8.26%
54 | COC(=O)C(NS(=O)(=O)c1ccc(F)cc1)c1ccccc1 (centres unmarked) | 9.38%
55 | CCOC(=O)c1[nH]cnc1C(=O)Nc1ccc(Cl)cc1 | 8.93%
56 | O=C(COC(=O)COc1ccc(Cl)cc1)Nc1ccc2c(c1)OCCO2 | 6.85%
57 | Cn1c(O)c(/C=N/NC(=O)c2ccncc2)c(=O)[nH]c1=S | 13.3%
58 | CCCCC(=O)Nc1ncc(S(=O)(=O)c2ccc([N+](=O)[O-])cc2)s1 | 18%
59 | CCc1ccc(S(=O)(=O)Nc2ccc(Br)cn2)cc1 | 6.9%
60 | Cc1noc(C)c1COc1ccc(C(=O)NCCc2ccc(S(N)(=O)=O)cc2)cc1 | -8.6%
61 | COc1ccccc1NC(=S)N1CCN(c2ccccc2F)CC1 | 14.9%
62 | Cc1csc(=O)n1CC(=O)OCc1nnc(-c2ccccc2)o1 | 9.67%
63 | COc1ccccc1C(CNC(=O)c1ccc(NS(=O)(=O)c2ccc(F)c(C)c2)cc1)N1CCCC1 (centres unmarked) | -7.16%
64 | N#Cc1c(N)nc(SCC(=O)NC2CCCCC2)c(C#N)c1-c1ccc(Cl)cc1 | 8.45%
65 | COC(=O)c1c(C(=O)OC)c(-c2ccc(C)cc2)n2c1CCC2 | 12.1%
66 | COc1ccc(CNS(=O)(=O)c2c(C)[nH]c(C)c2C(=O)N2CCCC2)cc1 | 10.1%
67 | CC(C)CN(C(=O)COC(=O)c1c2c(nc3ccccc13)CCC2)c1c(N)n(Cc2ccccc2)c(=O)[nH]c1=O | 12.7%
68 | O=C(C/C=N/OCc1ccccc1F)c1cnc(-c2ccc(Cl)cc2)s1 | 19%
69 | O=S(=O)(CCc1nnc(-c2ccccc2)o1)c1ccc2ccccc2c1 | -0.566%

Row | Structure (SMILES) | hERG current change (%, negative = inhibition) at 1uM
70 | COc1cc2c(cc1OC)-c1nnc(-c3cccs3)n1C(C)(C)C2 | -11.4%
71 | Fc1ccc2c(c1)C(c1ccncc1)=NNC(c1ccc(Br)cc1)=N2 | 11.4%
72 | COc1ccccc1N1CCN(CCCOc2ccc(F)cc2)CC1 | -60.3%
73 | Cc1ccc(C(C(=O)NC(C)(C)C)N(Cc2cccnc2)C(=O)C(=O)NC2CCCCC2)o1 (centres unmarked) | -2.42%
74 | CCC(=NCc1cccnc1)c1c(O)n(-c2ccc(C)cc2)c(=O)[nH]c1=O | 9.96%
75 | Cc1cc(C)cc(NC(=S)N2CCC(NC(=O)c3ccco3)CC2)c1 | 11.4%
76 | O=C(NNS(=O)(=O)c1ccc(Cl)cc1)c1cc(-c2ccccc2)nc2ccccc12 | 13.7%
77 | O=C(NCC(=O)N1CCCCCC1)c1ccc(OC(F)F)cc1 | 10.4%
78 | NC(=O)c1ccc[n+](CC(=O)c2ccc(F)cc2)c1.[Br-] | 14%
79 | COC(=O)c1cccc(S(=O)(=O)N2CCOCC2)c1 | 6.02%
80 | Brc1ccc(OCc2ccccc2)c(CNCC2CCCO2)c1.Cl (centres unmarked) | 0.438%
81 | CC(OC(=O)CCCc1nc2ccccc2s1)C(N)=O (centres unmarked) | 2.95%
82 | CC(C)N1CCC(N2CCN(CCCn3cccn3)CC2CCO)CC1 (centres unmarked) | -2.05%
83 | Cc1ccc(C)c(OCCC(=O)OCC(=O)N2CCN(c3ccccc3)CC2)c1 | 1.78%
84 | Cc1ccc(C(=O)C2C(c3cccs3)NC(=O)NC2(O)C(F)(F)F)cc1 (centres unmarked) | 8.28%
85 | Cc1ccc(C(=O)OCC(=O)c2c[nH]c3ccccc23)cc1S(=O)(=O)N1CCCCC1 | 0.754%
86 | O=C(NCc1ccc2c(c1)OCO2)c1cc(Cl)ccc1Cl | 13.4%
87 | CCCn1cc(S(=O)(=O)c2ccc(OC)cc2)c(=O)c2cc(OC)ccc21 | 1.94%
88 | O=C(NCc1ccccc1)c1ccc(/C=N/O)nc1 | 8.57%
89 | CCc1ccccc1NC(=O)CSc1nc2[nH]c(=O)cc(O)c2s1 | 13.2%
